Results as given in the supplement of paper PMC3334620.
Whole data set: some 33,000 sequences, median “E-score (-0.5 to 0.5)” near -0.021, cut for the highest 2% near 0.32. The list shows a part of the results.

target: T1, Zap1 (UniProt P47043); assay: PBM E-score (8-mer binding enrichment) (E-score (-0.5 to 0.5)); higher = stronger / more preferred TF binding; most listed sequences are background and not binding sites; conditions: protein concentration: 200 nM; construct: GST-full length
T1 sequence: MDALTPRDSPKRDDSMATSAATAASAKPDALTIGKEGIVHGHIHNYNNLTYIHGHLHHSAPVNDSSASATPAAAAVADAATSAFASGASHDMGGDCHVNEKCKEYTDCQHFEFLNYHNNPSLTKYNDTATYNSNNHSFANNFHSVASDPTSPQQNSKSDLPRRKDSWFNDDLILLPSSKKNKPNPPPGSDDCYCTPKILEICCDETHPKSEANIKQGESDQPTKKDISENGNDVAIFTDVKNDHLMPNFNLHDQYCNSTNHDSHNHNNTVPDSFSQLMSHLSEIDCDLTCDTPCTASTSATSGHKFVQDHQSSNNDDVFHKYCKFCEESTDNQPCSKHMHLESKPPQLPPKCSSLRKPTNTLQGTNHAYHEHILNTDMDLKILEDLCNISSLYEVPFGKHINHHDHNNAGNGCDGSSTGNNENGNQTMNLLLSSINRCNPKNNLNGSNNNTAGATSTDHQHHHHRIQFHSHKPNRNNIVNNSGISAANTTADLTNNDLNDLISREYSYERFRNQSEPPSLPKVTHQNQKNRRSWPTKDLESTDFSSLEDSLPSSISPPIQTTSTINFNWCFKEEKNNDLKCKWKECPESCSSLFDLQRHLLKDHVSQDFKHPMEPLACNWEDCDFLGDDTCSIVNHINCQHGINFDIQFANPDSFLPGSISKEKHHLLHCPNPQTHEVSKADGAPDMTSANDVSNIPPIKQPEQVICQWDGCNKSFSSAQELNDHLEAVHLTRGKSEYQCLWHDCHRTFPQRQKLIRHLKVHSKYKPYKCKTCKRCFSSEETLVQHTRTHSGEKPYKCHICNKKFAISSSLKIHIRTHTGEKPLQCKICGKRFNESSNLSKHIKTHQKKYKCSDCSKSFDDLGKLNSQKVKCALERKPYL
Procedure, shortened: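 Universal all-10-mer Agilent arrays, double-stranded by primer extension on fresh or once-stripped slides, were probed with about 100-200 nM GST-tagged yeast transcription factors made by PURExpress. Fluorescent anti-GST detected bound protein, and masliner normalised the scans. E-scores from the Universal PBM Analysis Suite were given to each ungapped eight-base word pooled with its reverse complement.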

| Sequence | PBM E-score |
| --- | --- |
| AGCGGGGG | -0.349 |
| CAGGCGAA | -0.179 |
| AATAGTAA | 0.216 |
| CGAGTTAG | 0.0552 |
| GACAGGGA | -0.19 |
| AAAGCGTT | 0.00705 |
| CCCGTAGG | 0.131 |
| GGCACCCA | 0.101 |
| CTACACAA | 0.129 |
| CCTCCATA | -0.106 |
| ATAGCCGG | -0.074 |
| CCTAACTA | 0.135 |
| CGCTCCCA | -0.241 |
| GTTTGTAA | 0.13 |
| CCCAGATC | -0.187 |
| CAAGAGTC | -0.0258 |
| ACATTCTG | -0.183 |
| ATACCCGG | 0.234 |
| GCATAACC | 0.414 |
| CACTGGGG | 0.0774 |
| CAGACAAA | 0.125 |
| ATGGAAAC | 0.0276 |
| CCTGCAGA | -0.0116 |
| GCGTCGTA | -0.0201 |
| AACCGCCC | 0.0827 |

| Sequence | PBM E-score |
| --- | --- |
| CACAATGC | -0.0567 |
| GAAAGCAC | -0.0639 |
| ATGAATCG | 0.0519 |
| ACACTTAG | -0.0017 |
| GCAGTGGA | -0.0424 |
| GATTACGA | 0.144 |
| AGCGGGAC | -0.0643 |
| GATGGAGC | -0.337 |
| GACTGCCC | -0.267 |
| AAGGCTAA | -0.0104 |
| ACACCAAG | 0.038 |
| CTGACGGA | -0.09 |
| AATCGAGC | -0.174 |
| ACCGACGC | -0.183 |
| AACTTCTG | -0.0719 |
| CCGCGTAC | -0.0732 |
| CCAAGGGA | -0.0225 |
| CACGGCGA | 0.0127 |
| CCTTCACA | 0.0885 |
| TCCTGGAA | -0.016 |
| ACTACTCC | -0.0247 |
| GATGTATA | -0.0515 |
| CCCACACC | 0.14 |
| GGTGTTCA | 0.155 |
| CGAGCTGA | 0.12 |

| Sequence | PBM E-score |
| --- | --- |
| AGCAGCAT | -0.268 |
| AGGTGACC | 0.393 |
| CTCACCGA | -0.00747 |
| ACCTGTTA | 0.0236 |
| GTACCTAC | 0.0513 |
| ACTTTTGC | -0.0825 |
| CTAGCGTA | -0.213 |
| AGACTAGC | -0.332 |
| AAGTTGCT | -0.0577 |
| ACAGGACA | 0.111 |
| CGCACTGA | -0.228 |
| GCTAAGGA | -0.344 |
| ACCCGCCG | 0.287 |
| AGGCATTG | -0.194 |
| GGACACTA | 0.0122 |
| AGTATCGA | 0.101 |
| ACACCCAA | 0.049 |
| TACGAATA | 0.197 |
| CGACAGCG | -0.154 |
| AAGTGACC | 0.256 |
| ATGTTGGC | -0.144 |
| CGAAGGCA | -0.222 |
| CCTTTGAC | 0.055 |
| CTCTTGGC | -0.0664 |
| CGCGTCAC | -0.0897 |

| Sequence | PBM E-score |
| --- | --- |
| GCCATTGA | 0.062 |
| ATTTCAGG | 0.114 |
| CCAACTTA | -0.0477 |
| GAAGCTGC | -0.265 |
| AAGACTAA | 0.0313 |
| TGATGGAA | -0.118 |
| ATGTCACA | 0.128 |
| GTTTAAAA | 0.0834 |
| AATGTGAG | -0.122 |
| AGCAGCCG | 0.0213 |
| AGAATGCG | -0.137 |
| TCAGCCAA | -0.0551 |
| ATCTCGCA | -0.0179 |
| ATTAAACG | 0.23 |
| CGACTGCC | -0.0988 |
| ACAGCTCG | -0.119 |
| GACCTTCA | 0.0992 |
| ACAGGCGA | -0.24 |
| CTAGTAAA | 0.206 |
| CTATCGTC | -0.187 |
| ACGAAAAC | 0.265 |
| CTGGCTTC | -0.221 |
| AAAGTCGT | -0.127 |
| AAGCGGCT | -0.0418 |
| CAAAACTG | 0.0208 |

| Sequence | PBM E-score |
| --- | --- |
| ATCCCAAC | -0.0432 |
| ACATGCCG | -0.241 |
| AAGGACGT | -0.0905 |
| TATGGGGA | 0.145 |
| ATCGGTAC | 0.134 |
| TAGCGCTA | -0.0121 |
| ATCATAGA | 0.0302 |
| CGCGGTGC | -0.00481 |
| AAACAGTG | 0.0759 |
| AGGGGAGG | 0.0257 |
| ATCCACAT | -0.146 |
| CAACTTCG | 0.0621 |
| CTTCCTGA | 0.0551 |
| AGCGTCCA | 0.0715 |
| AATATTTG | 0.12 |
| ATACGGGA | -0.049 |
| CGATTGAC | 8e-05 |
| CCTATATA | 0.229 |
| ACCCGACA | 0.168 |
| CAAGCTAA | 0.019 |
| ACGCCAGA | -0.0691 |
| AGACTCCG | -0.227 |
| GATTGCGA | -0.029 |
| CATATCAG | 0.0201 |
| AGATTCTG | -0.117 |

| Sequence | PBM E-score |
| --- | --- |
| CGGTTGAC | -0.0212 |
| CGTAAAGA | 0.0681 |
| CAGACCCA | 0.0103 |
| CTGCTAGA | -0.184 |
| GCGTCCTA | -0.163 |
| CCCGGCCG | -0.0333 |
| CATACATC | -0.0346 |
| CAAAGCCA | -0.186 |
| GGGTACCC | 0.469 |
| CCCAGCAC | -0.0416 |
| AATACTGG | 0.109 |
| TAAATCGA | 0.134 |
| ACCAGGCC | -0.0147 |
| GAGGAAAC | -0.0555 |
| CAGTGGGG | -0.143 |
| CCCGCTAA | -0.141 |
| ACCTATAA | 0.188 |
| AACAGATA | 0.0973 |
| CTGCTGTC | -0.144 |
| ATCGAGTC | -0.109 |
| GACTTACA | -0.126 |
| CACTAGTA | 0.0525 |
| GATGCCTA | -0.157 |
| GCGGTGCC | -0.0174 |
| GATGCCAC | -0.28 |

| Sequence | PBM E-score |
| --- | --- |
| GGTGTATA | -0.184 |
| AGTTTCGC | -0.0457 |
| ACCTTAAC | 0.358 |
| AACCGTCC | -0.00655 |
| ACCAGCCC | -0.0014 |
| ATTAAGAG | 0.0588 |
| CGTGACAG | -0.0781 |
| CACCACAC | -0.0631 |
| ATCCGACA | -0.129 |
| AGCGCGGG | -0.0416 |
| CAACATTG | -0.0114 |
| CCGAAGCA | -0.176 |
| GCTGGATA | 0.0267 |
| ATCTGCAC | -0.151 |
| CATGTAGA | -0.113 |
| AGACGATG | -0.191 |
| GACTTTCC | -0.0293 |
| GCCCAGGA | 0.0622 |
| GCGGCAGC | -0.362 |
| TAACTATA | 0.225 |
| GACTAGCA | -0.286 |
| AATCGAAT | -0.0387 |
